Results as given in PubChem BioAssay AID504832 (National Center for Advancing Translational Sciences (NCATS), 2011).
Out of some 310,000 compounds screened, about 18,000 (5.8%) were called active. Inconclusive means that the source gave no clear call. Such entries were picked first, then a sample of the others. Calls follow the shape of the dose curve; as a rule, active = well fitted inhibition curve with a large enough effect; inconclusive = small, poorly fitted or top-dose-only effect, or another doubt; inactive = no such curve, though single readings can be large or run the other way. Potencies of inconclusive entries are left out as doubtful fits.

Experiment: Primary qHTS for delayed death inhibitors of the malarial parasite plastid, 48 hour incubation
Conditions: P. falciparum luciferase growth in erythrocytes; series mostly up to 28.7 µM
Summary of the method: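 A one-generation exposure of luciferase-tagged malaria parasites in RPMI 1640/Albumax erythrocyte culture, 37 C and 5% CO2. Inhibition is inferred from decreased luminescence after adding detection reagent.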
Potency is read from the fitted curve at half-maximal effect; tags tell the direction and shape of the fitted curve.

Compound	Potency
CC(C)OC(=O)CN1C(=O)C(C)(C)Oc2ccc(C(=O)NC(C)(C)C)cc21	inconclusive [inhibitor, single point]
CCOC(=O)c1sc(N2N=C(C)C(N=Nc3cccc(C)c3)C2=O)nc1C (centres undefined)	inconclusive [inhibitor, partial curve, poor fit]
CCOc1ccc(-c2cc(NC(=O)c3c(F)cccc3F)c(C(=O)O)s2)cc1	inconclusive [inhibitor, partial curve, poor fit]
CCN(CC)c1ccc(/C=C/C(=O)c2ccc(Br)cc2)cc1	inactive
Cc1noc(C)c1CSCC(=O)Nc1nc(-c2ccc(F)c(F)c2)cs1	active: 10.4 µM
CC(C)(C)C(=O)Nc1cc(C(F)(F)F)ccc1N1CCOCC1	inconclusive [inhibitor, partial curve, poor fit]
Cc1ccc(Sc2ccc(S(=O)(=O)Nc3ccc(CC(=O)O)cc3)cc2)cc1C	inconclusive [inhibitor, single point]
OCC[C@H]1C[C@@H](O)[C@H](O)[C@@]2(OCc3ccccc32)O1	inactive
CSc1nc2[nH]c3c(c2c2nncn12)CC(C)(C)OC3	inconclusive [inhibitor, partial curve]
O=C(Nc1ncccc1O)c1ccc(C(=O)c2ccccc2)cc1	active: 0.738 µM
COc1cc(C(C(=O)NC2CCCCC2)N(C(=O)c2snc(C(N)=O)c2N)c2ccc(C)cc2)ccc1O (centres undefined)	active: 7.38 µM
COc1ccc(C2CC(=O)C(CS(=O)(=O)c3ccccc3)C(=O)C2)cc1 (centres undefined)	inactive
O=C(CN1CCN(c2cccc(Cl)c2)CC1)Nc1ccc([N+](=O)[O-])cc1C(=O)Nc1ccccc1F	inconclusive [inhibitor, single point]
CCOc1ccc(S(=O)(=O)Nc2cc(OC)ccc2OC)cc1	inactive
Cc1ccc(F)c(NC(=S)Nc2cccc3ccccc23)c1	inconclusive [inhibitor, partial curve, poor fit]
Cc1ccc(-n2cc(CNCCN3CCOC3=O)c(-c3ccc(F)cc3)n2)cc1	inconclusive [inhibitor, full curve, poor fit]
Cc1[nH]c2ccccc2c1C(=O)COC(=O)c1c(-c2ccccc2Cl)noc1C	inconclusive [inhibitor, partial curve, poor fit]
Fc1ccccc1CN(CCN1CCOCC1)C(=S)Nc1ccccc1Cl	inconclusive [inhibitor, single point]
CCn1c(C)c(C)c2cc(C(=O)NCCc3ccco3)ccc21	inconclusive [inhibitor, single point]
CCc1ccc(OCC(=O)N/N=C/c2cc([N+](=O)[O-])ccc2N2CCOCC2)cc1	inconclusive [inhibitor, partial curve, poor fit]
COc1cc(CN(C(=O)c2ccco2)C2CCS(=O)(=O)C2)cc(OC)c1OC (centres undefined)	inactive
CCCCCNC(=O)CCn1c(=O)oc2ccccc21	inconclusive [inhibitor, single point]
Cc1c(Br)cnn1C(C)C(=O)N1CCN(c2ccc(F)cc2)CC1 (centres undefined)	inconclusive [inhibitor, single point]

Compound	Potency
COc1ccc(CCNC(=O)C2CCCN(S(=O)(=O)c3ccc(F)cc3)C2)cc1 (centres undefined)	inconclusive [inhibitor, partial curve, poor fit]
O=c1c2cc(F)ccc2[nH]c(=S)n1CCCN1CCOCC1	inactive
COc1ccc(CCNC(=O)C(=O)NCC2CCCN2S(=O)(=O)c2cc(C)ccc2C)cc1 (centres undefined)	inconclusive [inhibitor, single point]
CCOC(=O)c1cc(-c2ccccc2)sc1NC(=O)C(C)Sc1nnnn1C (centres undefined)	inconclusive [inhibitor, partial curve, poor fit]
Cn1cc2ccc([N+](=O)[O-])cc2n1	inactive
CSc1ccccc1NC(=S)Nc1ccc(S(N)(=O)=O)cc1	inactive
CCOC(=O)c1c2ccc(OCC(=O)N/N=C/c3ccc(Cl)cc3)cc2n2ccccc12	inconclusive [inhibitor, partial curve, poor fit]
CC1CCCC(C)N1c1nnc(NC(=O)Cn2c(=O)oc3ccccc32)s1 (centres undefined)	inactive
Cc1c(C(=O)Nc2ccc(F)cc2)sc2ncn(CC(=O)N3CCCCC3)c(=O)c12	inactive
COc1ccc(OCC(=O)Nc2c(C(=O)N3CCC(N4CCCCC4)CC3)oc3ccccc23)cc1	inconclusive [inhibitor, single point]
Cc1ccc(CNC2=NCCS2)cc1	inconclusive [inhibitor, full curve, poor fit]
CCOc1ccc(N2C(=O)/C(=C/c3cc(OC)c(OC)c(OC)c3)N(CC(=O)OC)C2=S)cc1	inconclusive [inhibitor, single point]
Clc1ccc(-c2c(C3=NCCCN3)nnn2-c2ccc(Cl)cc2)cc1	inconclusive [inhibitor, single point]
CCOc1ccc(-n2c(-c3ccco3)nc3c(cnn3-c3ccc(C)cc3)c2=O)cc1	inactive
O=C(Nc1ccccc1N1CCN(C(=O)c2ccc(Cl)cc2)CC1)c1cccc(F)c1	inconclusive [inhibitor, single point]
COc1ccccc1N(C)S(=O)(=O)c1ccc(C(=O)Nc2ccc(C)cc2C)cc1	inconclusive [inhibitor, partial curve]
c1cncc(CSc2nnc3ccc(-c4ccco4)nn23)c1	inconclusive [inhibitor, partial curve, poor fit]
Nc1nc(N)c2cc(Sc3ccc4ccccc4c3)ccc2n1	active: 0.0074 µM
CCOC(=O)C1(Cc2cccc(OC)c2)CCCN(S(=O)(=O)N(C)C)C1 (centres undefined)	inactive
Cc1ccc(Cc2cc(C)n[nH]c2=O)cc1	inactive
CN(Cc1ccc(Cl)c(Cl)c1)C(=O)c1cccc(S(=O)(=O)N2CCN(Cc3ccccc3)CC2)c1	inconclusive [inhibitor, single point]
CC(=O)c1ccc(NC(=O)CC23CC4CC(C2)CC(n2nnc(C)n2)(C4)C3)cc1	inconclusive [inhibitor, partial curve]
COc1ccc(Cl)cc1NC(=O)CN(C)C(=O)c1cc(=O)c2ccccc2o1	active: 11.7 µM

Compound	Potency
N#C/C(=C/c1cn(-c2ccccc2)nc1-c1cccc(OCc2ccc(F)cc2)c1)C(=O)NCCCn1ccnc1	active: 3.7 µM
CCc1cccc(C)c1NC(=S)NCC1CCN(c2ccc(OC)cc2)C1 (centres undefined)	active: 3.29 µM
CN(C)c1ccc(P(=S)(N(C)C)N(C)C)cc1	inconclusive [inhibitor, partial curve]
CC1Cc2ccccc2N1Cc1cc(=O)c(OCC(=O)NCCc2ccccc2)co1 (centres undefined)	active: 13.1 µM
O=C(COc1ccc(/C=N/NC(=O)c2ccccc2O)cc1)Nc1ccccc1	inactive
COc1ccc(/C=C/c2cc[n+](C(=O)Cc3ccccc3)cc2)cc1	inconclusive [inhibitor, full curve, poor fit]
CCCCC(=O)Nc1nc2ccc3nc(C)sc3c2s1	inconclusive [inhibitor, single point]
Cc1sc2nc(-c3ccc(Br)cc3)oc(=O)c2c1C	inactive
O=C(Nc1ccc2c(c1)OCO2)N1CCN(c2ncc(C(F)(F)F)cc2Cl)CC1	inconclusive [inhibitor, partial curve]
COc1ccccc1-n1nc(C(=O)NCc2ccco2)c2ccccc2c1=O	inconclusive [inhibitor, single point]
CC1CCN(CCC(=O)N2CCCc3c2c(=O)oc2ccc(O)cc32)CC1	inconclusive [inhibitor, partial curve, poor fit]
COc1ccccc1CNC(=O)CCCn1nc(C)c2c(C)n(-c3ccccc3)nc2c1=O	inactive
CN(C(=S)NC1CCCCC1)C1(c2ccccc2Cl)CCCCC1=O (centres undefined)	active: 11.7 µM
CC(=O)Nc1cnn(Cc2ccc(Br)cc2)c1	inactive
COc1cc(C(=O)N(Cc2ccc(F)cc2)C2CCS(=O)(=O)C2)cc(OC)c1OC (centres undefined)	inconclusive [inhibitor, single point]
Cc1cc2ccccn2c1C(C[N+](=O)[O-])c1ccc(N(C)C)cc1 (centres undefined)	inconclusive [inhibitor, partial curve, poor fit]
COc1ccc([C@]23Cc4ccccc4C(O2)C2=C(O3)C(=O)c3ccccc3C2=O)cc1	active: 1.51 µM
Cc1c(C(=O)N2CCN(C(=O)c3ccco3)CC2)oc2c(Cl)cccc12	inconclusive [inhibitor, single point]
COc1ccccc1C(=O)NCCc1c(C)[nH]c2c(C)ccc(F)c12	inactive
O=c1c2ccccc2n(CC(O)CN2CCCCC2)c2ccccc12 (centres undefined)	inconclusive [inhibitor, single point]
C[C@@H]1CC=C[C@H]2[C@H]1C(=O)N(Cc1ccccc1)[C@H]2c1ccc(F)c(Br)c1	inconclusive [inhibitor, single point]
CCc1cc(=O)oc2c(C)c(OC(C)C(=O)N3CCC[C@@H]3C(=O)O)ccc12 (some centres undefined)	inactive
O=C(C1=C(O)C(=O)N(c2nccs2)C1c1ccccc1)c1cc2ccccc2o1 (centres undefined)	inactive
